These results are taken from paper PMC12820563, “FoxP3 forms a head-to-head dimer in vivo and stabilizes its multimerization on adjacent microsatellites”.

Some of the results follow.

The target in this test is T1, MBP-FoxP1dN (Mus musculus, UniProt P58462 326-579).
T1 sequence: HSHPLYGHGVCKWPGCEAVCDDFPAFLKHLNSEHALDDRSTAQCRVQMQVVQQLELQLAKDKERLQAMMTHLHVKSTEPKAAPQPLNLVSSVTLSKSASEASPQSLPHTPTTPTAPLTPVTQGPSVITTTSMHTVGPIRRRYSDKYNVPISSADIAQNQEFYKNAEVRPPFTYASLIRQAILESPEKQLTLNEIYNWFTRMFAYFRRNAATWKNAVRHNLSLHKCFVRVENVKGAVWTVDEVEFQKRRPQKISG
Description: PD-seq (MBP pull-down with sequencing); 20 mM Tris-HCl pH 7.5, 100 mM NaCl, 1.5 mM MgCl2, 0.4 uM protein, 0.1 uM dsDNA library, 30 min, room temperature, amylose pull-down; high values mean tight binding. As to conditions: protein: recombinant; tags: His6-MBP; chain copies: 2; dsDNA, one strand shown. The method, boiled down: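 A degenerate double-stranded DNA library, filled in with Klenow, was added at 0.1 µM to 0.4 µM His6-MBP-tagged mouse FoxP3 or FoxP1 fragment lacking the N-terminus, expressed in E. coli. Incubation lasted 30 min at room temperature in Tris pH 7.5 buffer with NaCl and MgCl2, after which complexes were collected on amylose resin, washed three times, digested with proteinase K to free the DNA, barcoded by PCR and sequenced by Illumina. Binding is the pooled-replicate reads-per-million enrichment of pull-down over input.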
“GATGATTGTTCTCCCAGCTGATGAATTGACGCCCTCGAGTAAACAAATTTTCCTAATCTTTCTGTTCAAGCGCCATCTAC”: the binding signal is 0.974 RPM ratio (pull-down/input).

Take “GATGATTGTTCTCCCAGCTGATGAATTTAACCAATCGAGTAAACAAATTTTCCTAATCTTTCTGTTCAAGCGCCATCTAC”: the binding signal was 1.07 RPM ratio (pull-down/input).

On to “GATGATTGTTCTCCCAGCTGATGAATTTAGAGGGTCGAGTAAACAAATTTTCCTAATCTTTCTGTTCAAGCGCCATCTAC”, for which the binding signal was 0.887 RPM ratio (pull-down/input).

On to “GATGATTGTTCTCCCAGCTGATGAATTTGCGCCGTCGAGTAAACAAATTTTCCTAATCTTTCTGTTCAAGCGCCATCTAC”, for which the binding signal was 0.959 RPM ratio (pull-down/input).

As for “GATGATTGTTCTCCCAGCTGATGAATTGCCTAGATCGAGTAAACAAATTTTCCTAATCTTTCTGTTCAAGCGCCATCTAC”, the binding signal is 0.931 RPM ratio (pull-down/input).

“GATGATTGTTCTCCCAGCTGATGAATTATCCTTATCGAGTAAACAAATTTTCCTAATCTTTCTGTTCAAGCGCCATCTAC”: the binding signal is 0.969 RPM ratio (pull-down/input).

With “GATGATTGTTCTCCCAGCTGATGAATTACCAGACTCGAGTAAACAAATTTTCCTAATCTTTCTGTTCAAGCGCCATCTAC”, the binding signal is 0.92 RPM ratio (pull-down/input).

For “GATGATTGTTCTCCCAGCTGATGAATTTATAAGCTCGAGTAAACAAATTTTCCTAATCTTTCTGTTCAAGCGCCATCTAC”, the binding signal is 1.02 RPM ratio (pull-down/input).

With “GATGATTGTTCTCCCAGCTGATGAATTGCGGTGTTCGAGTAAACAAATTTTCCTAATCTTTCTGTTCAAGCGCCATCTAC”, the binding signal was 1.08 RPM ratio (pull-down/input).

Turning to “GATGATTGTTCTCCCAGCTGATGAATTTGGTTATTCGAGTAAACAAATTTTCCTAATCTTTCTGTTCAAGCGCCATCTAC”, the binding signal was 1.15 RPM ratio (pull-down/input).

For “GATGATTGTTCTCCCAGCTGATGAATTGTTACTATCGAGTAAACAAATTTTCCTAATCTTTCTGTTCAAGCGCCATCTAC”, the binding signal is 1.45 RPM ratio (pull-down/input).

As for “GATGATTGTTCTCCCAGCTGATGAATTCTTGTGTTCGAGTAAACAAATTTTCCTAATCTTTCTGTTCAAGCGCCATCTAC”, the binding signal is 1.6 RPM ratio (pull-down/input).

With “GATGATTGTTCTCCCAGCTGATGAATTTGTACCCTCGAGTAAACAAATTTTCCTAATCTTTCTGTTCAAGCGCCATCTAC”, the binding signal is 1.04 RPM ratio (pull-down/input).

Consider “GATGATTGTTCTCCCAGCTGATGAATTACGTCCCTCGAGTAAACAAATTTTCCTAATCTTTCTGTTCAAGCGCCATCTAC”, for which the binding signal was 0.968 RPM ratio (pull-down/input).

“GATGATTGTTCTCCCAGCTGATGAATTGAAATCTTCGAGTAAACAAATTTTCCTAATCTTTCTGTTCAAGCGCCATCTAC”: the binding signal was 0.915 RPM ratio (pull-down/input).

In the case of “GATGATTGTTCTCCCAGCTGATGAATTATGTGCCTCGAGTAAACAAATTTTCCTAATCTTTCTGTTCAAGCGCCATCTAC”, the binding signal is 1.15 RPM ratio (pull-down/input).

With “GATGATTGTTCTCCCAGCTGATGAATTGCAGGAATCGAGTAAACAAATTTTCCTAATCTTTCTGTTCAAGCGCCATCTAC”, the binding signal is 1.19 RPM ratio (pull-down/input).

On to “GATGATTGTTCTCCCAGCTGATGAATTATCTTTGTCGAGTAAACAAATTTTCCTAATCTTTCTGTTCAAGCGCCATCTAC”, for which the binding signal was 1.13 RPM ratio (pull-down/input).

As to “GATGATTGTTCTCCCAGCTGATGAATTGCGACCTTCGAGTAAACAAATTTTCCTAATCTTTCTGTTCAAGCGCCATCTAC”, the binding signal was 1.04 RPM ratio (pull-down/input).

Regarding “GATGATTGTTCTCCCAGCTGATGAATTATGGCACTCGAGTAAACAAATTTTCCTAATCTTTCTGTTCAAGCGCCATCTAC”, the binding signal was 0.972 RPM ratio (pull-down/input).

With “GATGATTGTTCTCCCAGCTGATGAATTGCAACCGTCGAGTAAACAAATTTTCCTAATCTTTCTGTTCAAGCGCCATCTAC”, the binding signal is 1.29 RPM ratio (pull-down/input).

Regarding “GATGATTGTTCTCCCAGCTGATGAATTGGCAAAGTCGAGTAAACAAATTTTCCTAATCTTTCTGTTCAAGCGCCATCTAC”, the binding signal is 0.842 RPM ratio (pull-down/input).

On to “GATGATTGTTCTCCCAGCTGATGAATTTGCGATCTCGAGTAAACAAATTTTCCTAATCTTTCTGTTCAAGCGCCATCTAC”, for which the binding signal is 0.924 RPM ratio (pull-down/input).

Regarding “GATGATTGTTCTCCCAGCTGATGAATTCCGCATTTCGAGTAAACAAATTTTCCTAATCTTTCTGTTCAAGCGCCATCTAC”, the binding signal is 1.06 RPM ratio (pull-down/input).

As to “GATGATTGTTCTCCCAGCTGATGAATTTGGAAAGTCGAGTAAACAAATTTTCCTAATCTTTCTGTTCAAGCGCCATCTAC”, the binding signal is 0.879 RPM ratio (pull-down/input).

Consider “GATGATTGTTCTCCCAGCTGATGAATTATAGTAATCGAGTAAACAAATTTTCCTAATCTTTCTGTTCAAGCGCCATCTAC”, for which the binding signal was 1.7 RPM ratio (pull-down/input).

As to “GATGATTGTTCTCCCAGCTGATGAATTGACGCCTTCGAGTAAACAAATTTTCCTAATCTTTCTGTTCAAGCGCCATCTAC”, the binding signal is 1.11 RPM ratio (pull-down/input).

In the case of “GATGATTGTTCTCCCAGCTGATGAATTACAGTGATCGAGTAAACAAATTTTCCTAATCTTTCTGTTCAAGCGCCATCTAC”, the binding signal was 1.04 RPM ratio (pull-down/input).

As for “GATGATTGTTCTCCCAGCTGATGAATTGGTAGAGTCGAGTAAACAAATTTTCCTAATCTTTCTGTTCAAGCGCCATCTAC”, the binding signal was 0.874 RPM ratio (pull-down/input).

Take “GATGATTGTTCTCCCAGCTGATGAATTAAGCCATTCGAGTAAACAAATTTTCCTAATCTTTCTGTTCAAGCGCCATCTAC”: the binding signal is 0.989 RPM ratio (pull-down/input).

On to “GATGATTGTTCTCCCAGCTGATGAATTCCACGTCTCGAGTAAACAAATTTTCCTAATCTTTCTGTTCAAGCGCCATCTAC”, for which the binding signal was 0.806 RPM ratio (pull-down/input).
